# Assay results: the supplement of paper PMC10126150
# Sequences with one replicate were seen in a single cluster, so their values are uncertain.
# System: ATP
# Test: switch fluorescence ratio, 500 uM ATP over buffer (Cy3 cluster intensity, sum of 5 cycles each) (fold (ratio)); higher = stronger signal-on switching upon ATP binding; sequences stand for … in TCGTCGGCAGCGTCAGATGTGTATAAGAGACAGTTTTTTTTTTTTTTTTTTTTTTTTT…TC
# Settings: aptamer strand: ATP DNA aptamer (quencher-CACCTGGGGGAGTATTGCGGAGGAAGG + anchor), 100 nM annealed; ATP concentration: 500 uM; one replicate
# How it was run: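 After annealing to 100 nM quencher-labelled ATP aptamer, Cy3-labelled switching-strand clusters on a modified Illumina MiSeq flow-cell were imaged in selection buffer. A second image followed after 15 min with 500 uM ATP at 22 °C, and five such buffer/ATP cycles were done, each separated by NaOH stripping and re-annealing. The fluorescence ratio, averaged per switch-domain sequence, is summed target-cycle over summed buffer-cycle Cy3 intensity per cluster, with clusters outside 100-1000 RFU excluded.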
# 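Further: ATP exposure 15 min at 22 °C before imaging.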
row,Sequence,switch fluorescence ratio
1,ATAGTCAA,0.986
2,ACGATCGGAA,1.11
3,AATTAGTCGA,1.02
4,CCTTAAATTT,1
5,AGAGGTAAAA,1
6,ATGGGTTGG,0.989
7,AAGATAAGCG,1.05
8,AGTCGTTCTT,0.941
9,CAAACTCCTG,1.05
10,GTCCCTCAGG,3.88
11,TCTTATAAGG,1
12,GTTACCTCCC,1.69
13,CATTTTGGAA,1.02
14,TGGGCTTTAA,0.945
15,TTGCCCAATG,1.03
16,GGTGCTAGCA,1.08
17,ATGGTAGCGT,0.977
18,CTGGCCCTTT,1.04
19,GTTTAGCCTG,0.989
20,TGAATTAGGT,0.985
21,ACGCTCATTG,1.01
22,CAGGCTGTTA,0.998
23,ATATGAGGAG,1.02

row,Sequence,switch fluorescence ratio
1,TCCGGGCGCG,1.01
2,GTTATAACCA,1.03
3,TTTGACCTCA,0.99
4,CGGTACGATC,0.998
5,CCATGTGGGC,1.06
6,CCTGCCGTGC,1.58
7,CGAACTACGC,2
8,GCTATGCATT,1.02
9,GGGTCAGCCT,1.02
10,CTGACGCTTT,1.32
11,GCATGGCCGG,0.99
12,AAATGAAAGG,1
13,GGCGTAACAG,0.959
14,ATTGTTATTC,1.01
15,TTAGGAAAAC,1
16,CCCGGTCACC,1.05
17,CAATCGATGA,0.969
18,CCCAAGGAGA,1.05
19,CCGCCGTTT,1.49
20,ACCTGAAAG,1.04
21,TTTGATGCCA,1.01
22,GGTTACGAGA,1.04
23,TAGATCTTCG,1.05

row,Sequence,switch fluorescence ratio
1,CATGGTAACC,0.991
2,CCGCTATCCT,4.55
3,TTGCGCTGCG,0.951
4,GTCGACAGGA,1.03
5,AACGACTGCT,1.03
6,GACATAGTCC,1.04
7,CTCAGAGTGA,1.05
8,TTTTCTCGGA,0.999
9,TGACGGGGAC,1.27
10,ATAAACTCAA,1.01
11,TCCGATCTCG,1.08
12,CATTTAGCAG,1.05
13,TCTGGTCTAC,1.06
14,AGACGGGCAG,1.04
15,CGCGTTGAGC,1.06
16,AAAGGATGGA,0.948
17,AAAGTGAGTT,1.01
18,TGAGCGAACG,1
19,TCCTCTACAG,1.55
20,AAGGCCGGCT,1.11
21,ACATTCATAG,1.01
22,GCACCAAAGG,1.05
23,CGCACTAACT,1.88

row,Sequence,switch fluorescence ratio
1,AGACCATTTA,0.994
2,GTTACGTGC,1.05
3,GTGGAACATG,0.968
4,CGGGAAGCTA,1.01
5,TGTGTTGAGT,0.953
6,AGAATTAGTA,1.01
7,TATCATCAAA,1.03
8,AAGACGTGGG,0.983
9,GAACTCTTAT,0.981
10,TACGCGTAGT,0.998
11,TGATTTAAG,0.978
12,ACTAAGAAGT,0.999
13,TGTTCTCCCT,1.04
14,TCAGTATTAG,1
15,TCGGGTCAAT,1.18
16,CCAACCCTTG,1.05
17,TTGTAGGTGC,1.1
18,AGGCTCAGGT,1.02
19,AATGGCTGTA,0.994
20,AGCTGATCCG,1.21
21,CAGCTCTAAT,0.96
22,TTGCATACGG,2.79
23,GTATCTTGGT,1

row,Sequence,switch fluorescence ratio
1,GCCACAGTGT,1.33
2,AGTTACACGC,1.03
3,ACTGGGTGTA,1.04
4,GGAGAGAGTA,1.01
5,CGATGATAGT,0.993
6,AGCGACCATG,1.01
7,TTAATTCTTT,1.03
8,GGATGGTTTG,0.98
9,CCGCAGTAAG,6.89
10,TTTATTACGT,0.982
11,AGGGACTGAG,0.926
12,GGCGTAAACA,1.1
13,TGGTTCGTA,1.04
14,GAGTCACCAC,1.09
15,GGTACCCCAA,0.999
16,CCGGAGTGTT,5.05
17,ATTCCTCATA,1.05
18,TCGAAGGAT,1
19,TGTCGTGCTA,0.953
20,TATCGATTTG,1.01
21,TACGCCGTAT,1.13
22,CAGCCACCCC,1.21
23,TCTAAGCGTA,1

row,Sequence,switch fluorescence ratio
1,CATCACGGTT,1.06
2,ACAGCTAAGT,1.06
3,AATGACCGCC,1.18
4,CCAAGAGTAT,1.04
5,CCCGGATGCC,0.967
6,CCCTATCCTT,1.1
7,CGGATGGAAT,1.07
8,TACCTGACGG,1.42
9,TCTAGTAGAA,1.03
10,GAATAATGCG,0.992
11,TTGGGAGCCG,1.03
12,ACCGGCATTG,1.02
13,GATTGTTCAT,1.02
14,CCATGGGATG,1.01
15,CAGCTTTATG,1.02
16,TTATATACGA,1.05
17,AGGGATGCTC,0.994
18,GAGGTAACCT,1.18
19,GAAGTTTATT,1.05
20,TTCACGGTGA,0.968
21,GAATATTCA,0.989
22,GTTAACTTTT,0.954
23,TTACCCGCGT,1.24

row,Sequence,switch fluorescence ratio
1,AGCGCCTTAG,1.03
2,ATCTACAGG,1.14
3,ATGGCAAAAC,1.09
4,TTTACCAATA,1.04
5,TAAAGGCTGT,1.02
6,GTGCATATAT,1.11
7,TTGATCAAAA,1.08
8,AACGAACTTA,1.34
9,GGCATCCATC,0.987
10,ATCAAATGTG,0.95
11,TGCAGTCCGG,1.02
12,GTTTGGACCA,1
13,CAAAGGAAAG,1
14,GTACTTAACG,1.13
15,ACGACCGCAT,3.52
16,CGGGTGTCAA,1.03
17,TACGGAAATT,0.993
18,AGTTGCACCA,1.01
19,GGTAATCGAC,1.04
